Laboratory results taken from the supplement of paper PMC10037445.
Whole data set: some 2,900 compounds, median “IRF Lucia reporter activity, fold change vs agonist alone” near 0.9, cut for the highest 2% near 2.8. This is one part of the list.

Columns and labels:
[1] = test system: RAW-Dual; test: IRF Lucia reporter activity, fold change vs agonist alone; cytotoxicity flag (confluency mask): not cytotoxic; higher = enhanced IRF activity
Procedure, shortened: (§1)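 After 50 nL of library stock was delivered by pin tool to RAW-Dual macrophages (50,000 cells/well, DMEM, 384-well plates), a PRR agonist was added 1 h later and the plates were kept at 37 °C, 5% CO2. Twenty hours later, IRF was read from supernatant by QuantiLuc luminescence and NF-κB by QuantiBlue absorbance at 620 nm. Reporter activity is stated as fold change over agonist-alone wells. Wells with IncuCyte confluency under 70% of agonist controls in both mask sets were counted as cytotoxic.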

[2] = test system: RAW-Dual; test: IRF Lucia reporter activity, fold change vs agonist alone; higher = enhanced IRF activity; conditions: agonist: MPLA (TLR4) […]
Procedure, shortened: as §1

[3] = test system: RAW-Dual; test: IRF Lucia reporter activity, fold change vs agonist alone; cytotoxicity flag (confluency mask): cytotoxic (confluency <70% of control); higher = enhanced IRF activity
Procedure, shortened: as §1

[4] = agonist: 3'3'-cGAMP (STING) 10 ug/mL
[5] = library stock concentration (final ~1000-fold dilution): 10 mM, cytotoxicity flag (confluency mask): not cytotoxic
[6] = library stock concentration (final ~1000-fold dilution): 10 mM, cytotoxicity flag (confluency mask): cytotoxic (confluency <70% of control)

CC(C)=CCC[C@](C)(O[C@@H]1O[C@H](CO)[C@@H](O)C(O)[C@H]1O)[C@H]1CC[C@]2(C)[C@H]1[C@H](O)CC1[C@@]3(C)CC[C@H](O)C(C)(C)[C@@H]3[C@@H](O[C@@H]3O[C@H](CO)[C@@H](O)[C@H](O)[C@H]3O[C@@H]3O[C@@H](C)[C@H](O)[C@@H](O)[C@H]3O)C[C@]12C (some centres not stated) (library stock concentration (final ~1000-fold dilution): 10 mM)
IRF Lucia reporter activity [1, 4]: 1.16 | IRF Lucia reporter activity ([1]; agonist: LPS (TLR4) 0.1 ug/mL): 1.03

CO[C@H](c1c(NC(=O)Nc2cnc(-n3nccn3)c(Cl)c2)cnc2cc(Cl)nn12)[C@@H](C)OC (library stock concentration (final ~1000-fold dilution): 10 mM)
IRF Lucia reporter activity [1, 4]: 0.719 | IRF Lucia reporter activity ([1]; agonist: LPS (TLR4) 0.1 ug/mL): 1.04

COc1cc2ccc(=O)oc2c(OC)c1O (library stock concentration (final ~1000-fold dilution): .1 mM)
IRF Lucia reporter activity [1, 4]: 1.07 | IRF Lucia reporter activity ([1]; agonist: LPS (TLR4) 0.1 ug/mL): 0.255

CC(C)=CCc1cc(-c2coc3cc(O)ccc3c2=O)ccc1O (library stock concentration (final ~1000-fold dilution): 10 mM)
IRF Lucia reporter activity [1, 4]: 1.74 | IRF Lucia reporter activity ([1]; agonist: LPS (TLR4) 0.1 ug/mL): 1.04

OCC1OC(c2ccc(Cl)c(Cc3ccc(OC4CCOC4)cc3)c2)C(O)C(O)C1O (configuration not stated) (library stock concentration (final ~1000-fold dilution): 10 mM)
IRF Lucia reporter activity [1, 4]: 1.1 | IRF Lucia reporter activity ([1]; agonist: LPS (TLR4) 0.1 ug/mL): 1.29

CC1CNc2c(cccc2S(=O)(=O)NC(CCCNC(=N)N)C(=O)N2CCC(C)CC2C(=O)O)C1.O (configuration not stated) (library stock concentration (final ~1000-fold dilution): 10 mM)
IRF Lucia reporter activity [1, 4]: 0.961 | IRF Lucia reporter activity ([1]; agonist: LPS (TLR4) 0.1 ug/mL): 1.23

CC1CNc2c(cccc2S(=O)(=O)NC(CCCNC(=N)N)C(=O)N2CCC(C)CC2C(=O)O)C1.O (configuration not stated)
IRF Lucia reporter activity [2, 5]: 0.985

CN1C2CCCC1CC(NC(=O)c1nn(C)c3ccccc13)C2 (configuration not stated) (library stock concentration (final ~1000-fold dilution): 10 mM)
IRF Lucia reporter activity [1, 4]: 0.985 | IRF Lucia reporter activity ([1]; agonist: LPS (TLR4) 0.1 ug/mL): 1.27

CN1C2CCCC1CC(NC(=O)c1nn(C)c3ccccc13)C2 (configuration not stated)
IRF Lucia reporter activity [2, 5]: 1.01

CCCCCCCCc1ccc(CCC(N)(CO)CO)cc1.Cl (library stock concentration (final ~1000-fold dilution): 10 mM)
IRF Lucia reporter activity [3, 4]: 0.137 | IRF Lucia reporter activity ([3]; agonist: LPS (TLR4) 0.1 ug/mL): 0.402

CCCCCCCCc1ccc(CCC(N)(CO)CO)cc1.Cl
IRF Lucia reporter activity [2, 6]: 0.745

O=C(Cc1cccc(OC(F)(F)F)c1)Nc1ccc(CCCCc2nnc(NC(=O)Cc3ccccn3)s2)nn1 (library stock concentration (final ~1000-fold dilution): 10 mM)
IRF Lucia reporter activity [1, 4]: 0.699 | IRF Lucia reporter activity ([1]; agonist: LPS (TLR4) 0.1 ug/mL): 1.33

CCN(CC)CC#CCOC(=O)C(O)(c1ccccc1)C1CCCCC1 (configuration not stated)
IRF Lucia reporter activity [2, 5]: 1

CCN(CC)CC#CCOC(=O)C(O)(c1ccccc1)C1CCCCC1 (configuration not stated) (library stock concentration (final ~1000-fold dilution): 10 mM)
IRF Lucia reporter activity [1, 4]: 1.08 | IRF Lucia reporter activity ([1]; agonist: LPS (TLR4) 0.1 ug/mL): 2.22

CC(C)Nc1cccnc1N1CCN(C(=O)c2cc3cc(NS(C)(=O)=O)ccc3[nH]2)CC1.CS(=O)(=O)O (library stock concentration (final ~1000-fold dilution): 10 mM)
IRF Lucia reporter activity [1, 4]: 0.844 | IRF Lucia reporter activity ([1]; agonist: LPS (TLR4) 0.1 ug/mL): 0.728

CC(C)Nc1cccnc1N1CCN(C(=O)c2cc3cc(NS(C)(=O)=O)ccc3[nH]2)CC1.CS(=O)(=O)O
IRF Lucia reporter activity [2, 5]: 0.95

CN(c1ncccc1CNc1nc(Nc2ccc3c(c2)CC(=O)N3)ncc1C(F)(F)F)S(C)(=O)=O.Cl (library stock concentration (final ~1000-fold dilution): 10 mM)
IRF Lucia reporter activity [3, 4]: 0.0132 | IRF Lucia reporter activity ([3]; agonist: LPS (TLR4) 0.1 ug/mL): 0.0259

CN(c1ncccc1CNc1nc(Nc2ccc3c(c2)CC(=O)N3)ncc1C(F)(F)F)S(C)(=O)=O.Cl
IRF Lucia reporter activity [2, 6]: 0.0257

c1ccc2c(-c3nccs3)c[nH]c2c1 (library stock concentration (final ~1000-fold dilution): 10 mM)
IRF Lucia reporter activity [1, 4]: 0.706 | IRF Lucia reporter activity ([1]; agonist: LPS (TLR4) 0.1 ug/mL): 1.19

CCN(Cc1ccncc1)C(=O)C(CO)c1ccccc1 (configuration not stated) (library stock concentration (final ~1000-fold dilution): 10 mM)
IRF Lucia reporter activity [1, 4]: 1.04 | IRF Lucia reporter activity ([1]; agonist: LPS (TLR4) 0.1 ug/mL): 0.851

CCN(Cc1ccncc1)C(=O)C(CO)c1ccccc1 (configuration not stated)
IRF Lucia reporter activity [2, 5]: 0.932

CNCCC(Oc1cccc2ccccc12)c1cccs1.Cl (configuration not stated) (library stock concentration (final ~1000-fold dilution): 10 mM)
IRF Lucia reporter activity [3, 4]: 0.792 | IRF Lucia reporter activity ([3]; agonist: LPS (TLR4) 0.1 ug/mL): 1.18

CNCCC(Oc1cccc2ccccc12)c1cccs1.Cl (configuration not stated)
IRF Lucia reporter activity [2, 6]: 1.45

O=C(O)c1cc(O)c2c(c1)C(C1c3cc(C(=O)O)cc(O)c3C(=O)c3c(OC4OC(CO)C(O)C(O)C4O)cccc31)c1cccc(OC3OC(CO)C(O)C(O)C3O)c1C2=O (configuration not stated)
IRF Lucia reporter activity ([2]; library stock concentration (final ~1000-fold dilution): 2 mM, cytotoxicity flag (confluency mask): not cytotoxic): 1.11 | IRF Lucia reporter activity [2, 5]: 1.03

O=C(O)c1cc(O)c2c(c1)C(C1c3cc(C(=O)O)cc(O)c3C(=O)c3c(OC4OC(CO)C(O)C(O)C4O)cccc31)c1cccc(OC3OC(CO)C(O)C(O)C3O)c1C2=O (configuration not stated) (library stock concentration (final ~1000-fold dilution): 10 mM)
IRF Lucia reporter activity [1, 4]: 0.928 | IRF Lucia reporter activity ([1]; agonist: LPS (TLR4) 0.1 ug/mL): 0.947
